Assay results published in the supplement of paper PMC11417369.
± gives the standard deviation of the averaged measurements. Some of the results follow.

Test system: PfAP2-G AP2 domain (GST-tagged)
Assay: gcPBM binding intensity (ln(normalized median fluorescence intensity)); higher = stronger DNA binding
Summary of the method: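 The binding buffer was 1× PBS containing 1% milk, 0.2 mg/ml BSA, 0.5% salmon testes DNA and 0.03% Triton X-100. In it, GST-tagged P. falciparum DNA-binding domains expressed in E. coli were applied for 1 h to an Agilent 4 × 180k array of primer-extended double-stranded 36-bp intergenic genomic probes plus negative controls. Binding intensity, read with Alexa488 anti-GST antibody and a 488 nm scan, is the highest Masliner-normalised natural-log median intensity across replicate spots of either probe orientation.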

Row | Sequence | gcPBM binding intensity (ln)
1 | CAAAAAACAACAGATCGTACAAAATATTATATATAT [XGTACX_site2285] | 10.7 ± 0.49
2 | TATCCATATTTGTTCACACACACACCGATTTATATA [CACACA_site5888] | 10.22 ± 0.049
3 | TTGAAAAATGAGCACACACACAAATACATACATATT [CACACA_site3231] | 10.3 ± 0.2
4 | TTAACTCTGGAGAAAAGTACATAGTATCTGGTAACA [XGTACX_site4941] | 11.2 ± 0.99
5 | TTTTAACAAAAAAAAAGAAAAGAAAAGAAAATAATA [XGTACX_negctrl_site530] | 9.73 ± 0.071
6 | TATATTTATATCCACTTCGTTTAACGCACAGATATA [CACACA_negctrl_site954] | 10.2 ± 0.35
7 | AAGTTTTTTTTTAACACACACATAATAAAATAAATA [CACACA_site446] | 10.1 ± 0.16
8 | ATTATAAAAATATATTGTACACAAAAATGTTTATAT [XGTACX_site5066] | 11.3 ± 0.85
9 | TGAGATATAAAAATATGTACTTATGTATAAATATTT [XGTACX_site7746] | 11.1 ± 0.66
10 | CCAAATTTATTTTGTAGTACTCCGTATAGATCAACA [XGTACX_site7945] | 11.6 ± 0.96
11 | ATATACTATATTTTAACACACAAAAAAAAAAAATAT [CACACA_site1091] | 9.985 ± 0.035
12 | TCTTATTCAAACGTAAAACGAAGAAGAAAAAAAAAA [CACACA_negctrl_site149] | 9.93 ± 0.17
13 | AAATTATATATATTACGTACATAGAACTTTACAGAA [XGTACX_site6646] | 11.4 ± 0.97
14 | ATGTTACACCGACACACACACATAAAAAAACAAAAA [CACACA_site5750] | 10.3 ± 0.4
15 | ATAAATAAATAAATAAATAAATATACATATACATAT [CACACA_negctrl_site205] | 9.805 ± 0.092
16 | AAGAAATAAAAAGAATGTACACAATATGTATTATAA [XGTACX_site4733] | 11.5 ± 0.69
17 | TGGACAATTGTTTATTGTACTTAAATTTTATGTTCT [XGTACX_site8974] | 11.3 ± 0.95
18 | AGCATTTTAAGTTATACACACATTTTGAATCTATAT [CACACA_site7599] | 9.96 ± 0.071
19 | AAAAAAAATTCGTGTGTGCGCATATATAATATATAA | 10.31 ± 0.092
20 | AAGCATACATCAAGCACACACACACCCACAGAGACA [CACACA_site4362] | 10.2 ± 0.26
21 | TACATACATATATTATGTACATATTTTATTTTTATT [XGTACX_site1642] | 11.2 ± 0.7
22 | TTTCTTTTAATAATTAAATATTTATTTATGATTATA [TGCATGCA_negctrl_site30] | 9.46 ± 0.028

Row | Sequence | gcPBM binding intensity (ln)
23 | TATGTAGTTTTAAAGTGTACTTATATATATTAATTG [XGTACX_site378] | 11.4 ± 0.87
24 | ATAAATATATATATCACACATATATAATTATATATA [CACACA_site4787] | 10 ± 0.38
25 | TACTGTGATAGCACCACACACGCAAAAGTGGGTATA [CACACA_site4749] | 10.2 ± 0.2
26 | TTTAAATCGTTAAAAACACACAAAAAAAATCAATTA [CACACA_site2519] | 9.97 ± 0.18
27 | ATTGCAAGTTACTTGTGTACTTATAAGATTAAAAGA [XGTACX_site7696] | 11.5 ± 1
28 | TAATAATACCCAAGCACACACACACCCATATATATA [CACACA_site4831] | 10.1 ± 0.13
29 | AATATAAATAAAAACACACACAATGGTACATATATA [CACACA_site3671] | 10.9 ± 0.46
30 | TCTATACCAGAAAAGGGTACATATTTTGGATTGAAC [XGTACX_site8402] | 11.1 ± 0.61
31 | ATTATGCACCAACACACACACACACTCCTAAAAAAT [CACACA_site8822] | 10.4 ± 0.38
32 | CGAATATATTCTAGACGTACTATATAATATATATAT [XGTACX_site4953] | 11.1 ± 0.69
33 | GATAATTACGGACACACACACACACGCACAACTAAA [CACACA_site7254] | 11.5 ± 0.87
34 | ACTATCATTCATAGGTGTACCTAAATATATATATAT [XGTACX_site1696] | 11.5 ± 1.1
35 | TCTTTTTCTTCTTATGTGCACATCAATTATGCTTCT | 10.5 ± 0.31
36 | ATAATAAAAATATATACATGCATTATTATATATATA [TGCATGCA_site799] | 9.635 ± 0.049
37 | CAACAATTTCGTCATACACACATTCAGAATATAGAT [CACACA_site7166] | 10.24 ± 0.042
38 | ATAATATTTTTTAATTGTACGTTCCATTTTTTTAAA [XGTACX_site1227] | 11.1 ± 0.64
39 | TTATTTCGAAGAAAATGTACATATATAAATATATAC [XGTACX_site3308] | 11.1 ± 0.62
40 | ATATGTATATATGTATGTACGTACAAATTGTTGTAA [XGTACX_site8832] | 11.7 ± 0.8
41 | TGTATAAAGATATATACACACATATTTATTTATATA [CACACA_site6493] | 9.745 ± 0.007
42 | TACAAAATAACTAGCACACATATGTATAAACCTATA [CACACA_site3718] | 10.06 ± 0.049
43 | AGTAGCATATTCTATTGTACATATATATATATATAT [XGTACX_site2980] | 11 ± 0.73
44 | ATTAAAAACGGGTGTACACATATATAAATATATATA [CACACA_site4539] | 11.7 ± 0.89
